The list shows a part of the results.
Columns and labels:
Assay in all cases: glycan array binding signal (z-score within array); higher = stronger binding
Conditions in all cases: glycan notation: IUPAC condensed, linker removed
[1] = biological target: Fuc(a1-3)[Gal(b1-4)]GlcNAc(b1-2)Man(a1-3)[Fuc(a1-3)[Gal(b1-4)]GlcNAc(b1-2)Man(a1-6)]Man(b1-4)GlcNAc(b1-4)GlcNAc
In short: (§1)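 Glycan array binding is given as a within-array Z-score, which can be read as non-binding when negative. The arrays, 3228 of them, came from the Consortium for Functional Glycomics database and were retained only where the protein sequence was available. Z-scores were averaged across arrays of the same protein sequence at different concentrations or buffers and across linkers.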

[2] = biological target: Fuc(a1-3)[Gal(b1-4)]GlcNAc(b1-2)Man(a1-6)[Gal(b1-4)GlcNAc(b1-2)Man(a1-3)]Man(b1-4)GlcNAc(b1-4)GlcNAc
In short: as §1

[3] = biological target: Fuc(a1-3)[Gal(b1-4)]GlcNAc(b1-3)Gal(b1-3)[Fuc(a1-4)]GlcNAc
In short: as §1

[4] = biological target: Fuc(a1-3)[Gal(b1-4)]GlcNAc(b1-3)Gal(b1-4)[Fuc(a1-3)]GlcNAc
In short: as §1

[5] = biological target: Fuc(a1-3)[Gal(b1-4)]GlcNAc(b1-3)Gal(b1-4)[Fuc(a1-3)]GlcNAc(b1-3)Gal(b1-4)[Fuc(a1-3)]GlcNAc
In short: as §1

[6] = biological target: Fuc(a1-3)[Gal(b1-4)]GlcNAc(b1-4)Gal(b1-4)[Fuc(a1-3)]GlcNAc
In short: as §1

[7] = biological target: Fuc(a1-3)[Gal(b1-4)]GlcNAc(b1-4)Gal(b1-4)[Fuc(a1-3)]GlcNAc(b1-4)Gal(b1-4)[Fuc(a1-3)]GlcNAc
In short: as §1

[8] = biological target: Fuc(a1-3)[Gal(b1-4)]GlcNAc6S
In short: as §1

[9] = biological target: Fuc(a1-3)[Gal3S(b1-4)]Glc6S
In short: as §1

[10] = biological target: Fuc(a1-3)[Gal3S(b1-4)]GlcNAc
In short: as §1

[11] = biological target: Fuc(a1-3)[Gal3S(b1-4)]GlcNAc6S
In short: as §1

[12] = biological target: Fuc(a1-3)[GalNAc(b1-4)]GlcNAc
In short: as §1

[13] = biological target: Fuc(a1-4)GlcNAc
In short: as §1

[14] = biological target: Fuc(b1-3)GlcNAc
In short: as §1

[15] = biological target: Gal(a1-2)Gal
In short: as §1

[16] = biological target: Gal(a1-3)Gal
In short: as §1

[17] = biological target: Gal(a1-3)Gal(b1-3)GlcNAc
In short: as §1

[18] = biological target: Gal(a1-3)Gal(b1-4)Glc
In short: as §1

[19] = biological target: Gal(a1-3)Gal(b1-4)GlcNAc
In short: as §1

[20] = biological target: Gal(a1-3)Gal(b1-4)[Fuc(a1-3)]GlcNAc
In short: as §1

[21] = biological target: Gal(a1-3)GalNAc
In short: as §1

[22] = biological target: Gal(a1-3)[Gal(a1-4)]Gal(b1-4)GlcNAc
In short: as §1

[23] = biological target: Gal(a1-4)Gal(b1-4)Glc
In short: as §1

[24] = biological target: Gal(a1-4)Gal(b1-4)GlcNAc
In short: as §1

[25] = biological target: Gal(a1-4)GlcNAc
In short: as §1

[26] = biological target: Gal(a1-6)Glc
In short: as §1

[27] = biological target: Gal(b1-2)Gal
In short: as §1

[28] = biological target: Gal(b1-3)Gal
In short: as §1

[29] = biological target: Gal(b1-3)Gal(b1-4)GlcNAc
In short: as §1

[30] = biological target: Gal(b1-3)GalNAc
In short: as §1

[31] = biological target: Gal(b1-3)GalNAc(b1-3)Gal(a1-4)Gal(b1-4)Glc
In short: as §1

[32] = biological target: Gal(b1-3)GalNAc(b1-4)Gal(b1-4)Glc
In short: as §1

[33] = biological target: Gal(b1-3)GalNAc(b1-4)[Neu5Ac(a2-3)]Gal(b1-4)Glc
In short: as §1

[34] = biological target: Gal(b1-3)GlcNAc
In short: as §1

[35] = biological target: Gal(b1-3)GlcNAc(b1-2)Man(a1-3)[Gal(b1-3)GlcNAc(b1-2)Man(a1-6)]Man(b1-4)GlcNAc(b1-4)GlcNAc
In short: as §1

[36] = biological target: Gal(b1-3)GlcNAc(b1-3)Gal(b1-3)GlcNAc
In short: as §1

[37] = biological target: Gal(b1-3)GlcNAc(b1-3)Gal(b1-4)Glc
In short: as §1

[38] = biological target: Gal(b1-3)GlcNAc(b1-3)Gal(b1-4)GlcNAc
In short: as §1

B1: CD83 (Homo sapiens) (protein)
chain: MSRGLQLLLLSCAYSLAPATPEVKVACSEDVDLPCTAPWDPQVPYTVSWVKLLEGGEERMETPQEDHLRGQHYHQKGQNGSFDAPNERPYSLKIRNTTSCNSGTYRCTLQDPDGQRNLSGKVILRVTGCPAQRKEETFKKYRAETSEQKLISEEDLSRGSDDDDKAEPRGP
[1]
  glycan array binding signal (z-score): -0.311
[2]
  glycan array binding signal (z-score): -0.075
[3]
  glycan array binding signal (z-score): 0.334
[4]
  glycan array binding signal (z-score): 1.98
[5]
  glycan array binding signal (z-score): -0.095
[6]
  glycan array binding signal (z-score): -0.138
[7]
  glycan array binding signal (z-score): -0.087
[8]
  glycan array binding signal (z-score): -0.026
[9]
  glycan array binding signal (z-score): 0.154
[10]
  glycan array binding signal (z-score): 1.06
[11]
  glycan array binding signal (z-score): -0.148
[12]
  glycan array binding signal (z-score): -0.097
[13]
  glycan array binding signal (z-score): -0.109
[14]
  glycan array binding signal (z-score): -0.25
[15]
  glycan array binding signal (z-score): -0.371
[16]
  glycan array binding signal (z-score): -0.245
[17]
  glycan array binding signal (z-score): -0.137
[18]
  glycan array binding signal (z-score): -0.193
[19]
  glycan array binding signal (z-score): -0.153
[20]
  glycan array binding signal (z-score): -0.367
[21]
  glycan array binding signal (z-score): 0.049
[22]
  glycan array binding signal (z-score): -0.454
[23]
  glycan array binding signal (z-score): -0.136
[24]
  glycan array binding signal (z-score): -0.203
[25]
  glycan array binding signal (z-score): -0.298
[26]
  glycan array binding signal (z-score): -0.204
[27]
  glycan array binding signal (z-score): -0.222
[28]
  glycan array binding signal (z-score): 0.051
[29]
  glycan array binding signal (z-score): -0.143
[30]
  glycan array binding signal (z-score): -0.22
[31]
  glycan array binding signal (z-score): -0.322
[32]
  glycan array binding signal (z-score): -0.09
[33]
  glycan array binding signal (z-score): -0.465
[34]
  glycan array binding signal (z-score): -0.134
[35]
  glycan array binding signal (z-score): -0.207
[36]
  glycan array binding signal (z-score): -0.226
[37]
  glycan array binding signal (z-score): -0.32
[38]
  glycan array binding signal (z-score): -0.163
